The supplement of paper PMC12217912
The list shows a part of the results. Sequences were assembled here from the parent chain. Values near 0.05 are background.

B1: TEV protease; numbered along this chain (parent)
chain: MGESLFKGPRDYNPISSSICHLTNESDGHTTSLYGIGFGPFIITNKHLFRRNNGTLVVQSLHGVFKVKDTTTLQQHLVDGRDMIIIRMPKDFPPFPQKLKFREPQREERICLVTTNFQTKSMSSMVSDTSCTFPSGDGIFWKHWIQTKDGQCGSPLVSTRDGFIVGIHSASNFTNTNNYFTSVPKNFMELLTNQEAQQWVSGWRLNADSVLWGGHKVFMVKPEEPFQPVKEATQL

Variants of: B1
Experiment: raw area under fraction-flipped curve 0-4 h after induction (AUC4h, not background-subtracted), DNA-recorder readout of cleavage of the substrate (dimensionless); higher = more cleavage of the substrate by the protease variant
Details: temperature: 34 °C; time window: 0-4 h after rhamnose induction
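Further: Bxb1 expression induced with 0.2% (w/v) L-rhamnose at OD600 near 0.5, cultures sampled hourly, flipped fraction per protease–substrate barcode pair counted by paired-end Illumina sequencing.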

| Variant | area with substrate ENLYFQC | area with substrate ENLYFQD | area with substrate ENLYFQF | area with substrate ENLYFQG | area with substrate ENLYFQI | area with substrate ENLYFQL | area with substrate ENLYFQM | area with substrate ENLYFQP | area with substrate ENLYFQS | area with substrate ENLYFQT | area with substrate ENLYFQY | area with substrate ENLYFQK | area with substrate ENLYFQN | area with substrate ENLYFQH | area with substrate ENLYFQR | area with substrate ENLYFQV | area with substrate ENLYFQW | area with substrate ENLYFQE | area with substrate ENLYFQQ |
| --- | --- | --- | --- | --- | --- | --- | --- | --- | --- | --- | --- | --- | --- | --- | --- | --- | --- | --- | --- |
| A207I | 0.0846 | 0.0539 | 0.0678 | 0.0872 | 0.0556 | 0.0677 | 0.0901 | 0.0566 | 0.0951 | 0.0662 | 0.0864 |  |  |  |  |  |  |  |  |
| L77P | 0.108 |  | 0.0584 | 0.103 | 0.0546 | 0.0572 | 0.0775 | 0.0557 | 0.0933 | 0.0872 | 0.0669 | 0.0693 | 0.0875 |  |  |  |  |  |  |
| M88N | 0.0728 |  |  | 0.0769 |  | 0.0522 |  | 0.0524 | 0.0826 | 0.0414 |  | 0.0498 | 0.0671 | 0.0595 | 0.0481 | 0.048 | 0.049 |  |  |
| G202K |  |  |  |  |  |  | 0.117 |  | 0.0675 |  |  |  | 0.0613 |  |  |  | 0.0555 | 0.0578 |  |
| L156N | 0.0565 | 0.0553 | 0.0361 | 0.058 | 0.0431 | 0.0491 | 0.0461 | 0.0551 | 0.0545 | 0.0534 | 0.0557 | 0.0497 | 0.0528 | 0.0464 | 0.0323 |  | 0.0569 |  | 0.0457 |
| R160T | 0.15 |  |  |  |  | 0.0616 | 0.107 | 0.057 | 0.116 | 0.0736 |  | 0.0603 | 0.0731 | 0.0834 |  |  |  |  |  |
| D208M | 0.0881 |  |  | 0.1 | 0.0583 | 0.0595 | 0.0649 | 0.0608 | 0.0747 | 0.0359 |  |  | 0.0878 | 0.0687 | 0.0588 | 0.0586 | 0.0482 | 0.0717 |  |
| D208I |  |  | 0.0638 | 0.0839 | 0.0673 | 0.0532 | 0.0544 | 0.0528 | 0.0697 | 0.0568 | 0.0637 | 0.0701 | 0.0579 | 0.0754 | 0.0626 | 0.0695 | 0.0525 |  | 0.0514 |
| D208L | 0.0783 | 0.0505 | 0.0382 |  | 0.0572 |  | 0.0642 |  | 0.0694 |  |  | 0.0651 | 0.0571 |  | 0.0633 |  |  |  | 0.0483 |
| D208H | 0.0855 | 0.0758 |  |  | 0.0495 |  |  | 0.0685 | 0.0764 |  | 0.0659 |  |  | 0.0689 |  | 0.0589 | 0.0525 |  | 0.0165 |
| T192K |  | 0.0689 |  |  | 0.0567 | 0.0731 |  | 0.0722 | 0.0906 | 0.0571 |  | 0.0465 | 0.0782 | 0.069 | 0.0719 | 0.0564 | 0.0609 |  | 0.0844 |
| T192N | 0.106 |  | 0.0826 |  | 0.0637 | 0.0533 |  | 0.0659 | 0.105 | 0.0622 | 0.0911 | 0.0703 | 0.0798 | 0.0813 | 0.0837 | 0.0636 |  |  | 0.0811 |
| F133G |  |  | 0.0744 | 0.0712 | 0.0651 | 0.0493 |  | 0.0625 | 0.0867 | 0.0749 | 0.0682 | 0.0339 |  | 0.088 | 0.062 |  | 0.0612 |  |  |
| N52G | 0.0722 | 0.0574 | 0.0535 | 0.079 | 0.0607 | 0.0558 | 0.0827 | 0.0565 | 0.0681 | 0.0511 | 0.0597 | 0.0581 | 0.0677 |  | 0.0541 | 0.0569 | 0.0261 | 0.0643 |  |
| V64A |  | 0.0801 | 0.0804 | 0.0764 | 0.0556 | 0.0426 | 0.0723 | 0.0234 | 0.0945 | 0.0667 | 0.0995 | 0.071 |  |  |  |  | 0.0658 |  |  |
| S17C | 0.106 | 0.0804 |  | 0.144 | 0.0415 | 0.062 |  | 0.0404 | 0.0985 | 0.0667 | 0.067 | 0.0637 | 0.0528 | 0.0872 | 0.0545 | 0.053 | 0.0714 |  |  |

| Variant | area with substrate ENLYFQC | area with substrate ENLYFQD | area with substrate ENLYFQF | area with substrate ENLYFQG | area with substrate ENLYFQI | area with substrate ENLYFQL | area with substrate ENLYFQM | area with substrate ENLYFQP | area with substrate ENLYFQS | area with substrate ENLYFQT | area with substrate ENLYFQY | area with substrate ENLYFQK | area with substrate ENLYFQN | area with substrate ENLYFQH | area with substrate ENLYFQR | area with substrate ENLYFQV | area with substrate ENLYFQW | area with substrate ENLYFQE | area with substrate ENLYFQQ |
| --- | --- | --- | --- | --- | --- | --- | --- | --- | --- | --- | --- | --- | --- | --- | --- | --- | --- | --- | --- |
| N186A | 0.115 |  |  |  |  |  |  |  | 0.101 |  |  |  |  |  |  |  | 0.0854 |  |  |
| Q75N |  | 0.0497 |  |  | 0.0581 | 0.0438 | 0.0406 |  | 0.0823 | 0.0519 |  | 0.0622 | 0.0568 |  | 0.0574 |  |  |  |  |
| W144G | 0.0846 | 0.0505 |  |  | 0.0518 | 0.0565 | 0.0473 |  | 0.0822 | 0.0794 | 0.0962 | 0.0772 |  | 0.0584 | 0.0571 | 0.0572 | 0.0818 |  | 0.0654 |
| A232E |  | 0.0072 | 0.105 | 0.102 | 0.0597 | 0.069 |  |  | 0.111 | 0.0383 | 0.0707 | 0.0566 | 0.083 |  | 0.0668 |  | 0.0676 | 0.0548 |  |
| T132M |  | 0.0531 | 0.0714 | 0.0894 | 0.0527 | 0.0615 | 0.0818 |  | 0.0969 | 0.0626 | 0.081 | 0.059 | 0.0782 |  | 0.0571 |  | 0.0667 |  |  |
| P184E |  |  | 0.0654 | 0.0727 |  |  |  | 0.0841 | 0.0686 | 0.0489 |  | 0.0649 | 0.0826 |  | 0.0579 |  | 0.0418 | 0.0578 |  |
| P184R |  | 0.0596 |  | 0.0686 | 0.0395 | 0.0611 |  |  | 0.0683 |  |  | 0.079 | 0.0528 |  |  |  |  |  |  |
| H215A |  | 0.0701 | 0.053 |  | 0.0576 | 0.0566 | 0.0551 |  | 0.067 |  |  | 0.0565 | 0.057 |  |  | 0.0589 | 0.0606 |  |  |
| G35K |  | 0.0495 |  |  |  |  | 0.0464 |  | 0.0477 |  | 0.0573 |  |  |  |  |  | 0.039 |  |  |
| T174L |  | 0.0587 | 0.0706 |  |  |  |  |  | 0.102 |  | 0.0584 |  | 0.077 |  |  |  |  |  | 0.0974 |
| G8M | 0.0661 |  |  |  |  |  | 0.0882 |  | 0.0909 | 0.0562 |  | 0.053 | 0.0852 |  |  |  | 0.0391 |  |  |
| E195Y |  |  | 0.0687 | 0.0926 | 0.0505 |  |  |  | 0.101 |  |  |  |  |  | 0.0577 |  | 0.0765 |  |  |
| Q74S |  | 0.0602 | 0.0959 |  | 0.0707 | 0.0672 |  | 0.0673 | 0.0886 | 0.0727 | 0.112 | 0.067 | 0.0814 | 0.0912 | 0.064 | 0.05 |  | 0.0586 |  |
| D128S | 0.164 | 0.0951 |  | 0.117 | 0.0609 | 0.0652 | 0.0224 |  | 0.144 |  |  |  | 0.157 | 0.108 |  | 0.0579 | 0.0627 |  | 0.101 |
| T176G | 0.0798 | 0.0594 | 0.0507 |  | 0.0616 | 0.0725 | 0.0599 | 0.0518 | 0.0713 | 0.0491 |  | 0.0672 | 0.109 |  |  | 0.069 |  |  |  |
